# Measurements as given in the supplement of paper PMC8728848.
# Some of the results follow.
# B1: Pwp2 (Candida glabrata) (protein)
# chain: MGSSHHHHHHSSGLVPRGSHMASKNPVELNNVCTFPNDYGRIPGFTVLVGRLGLLISASDYKELLRYPGAFLIATQDTMTTSPNFELTGFPFFTGLYGLTVFPLDLLVELRGYFVPPNSGQYTFTLSDSDDAAIIFLGNPSAFPCGDLQNWPKPSEEDITVTDHLFPSRTLYLIEGVAYPMRIAYYNGIGAGRLNAAFIDPSGTRHTNWEGYIWQYDPCSTCTYS
# Experiments:
# Assay in all cases: glycan array binding signal (z-score within array); higher = stronger binding
# Settings in all cases: glycan notation: IUPAC condensed, linker removed
# [1] = biological target: Neu5Ac(a2-6)Gal(b1-4)GlcNAc(b1-3)Gal(b1-4)GlcNAc(b1-3)GalNAc
# Outline: (§1)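 Columns mapping to the same glycan were averaged after glycan names were converted to IUPAC-condensed notation. The data come from 3228 arrays in the Consortium for Functional Glycomics database, limited to those with an available protein sequence. Binding is reported as a within-array Z-score averaged across arrays of one protein sequence and across linkers.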
# [2] = biological target: Neu5Ac(a2-6)Gal(b1-4)GlcNAc(b1-3)Gal(b1-4)GlcNAc(b1-3)[Neu5Ac(a2-6)Gal(b1-4)GlcNAc(b1-3)Gal(b1-4)GlcNAc(b1-6)]GalNAc
# Outline: as §1
# [3] = biological target: Neu5Ac(a2-6)Gal(b1-4)GlcNAc(b1-3)Gal(b1-4)GlcNAc(b1-6)[Gal(b1-3)]GalNAc
# Outline: as §1
# [4] = biological target: Neu5Ac(a2-6)Gal(b1-4)GlcNAc(b1-3)Gal(b1-4)[Fuc(a1-3)]GlcNAc(b1-3)Gal(b1-4)[Fuc(a1-3)]GlcNAc
# Outline: as §1
# [5] = biological target: Neu5Ac(a2-6)Gal(b1-4)GlcNAc(b1-3)GalNAc
# Outline: as §1
# [6] = biological target: Neu5Ac(a2-6)Gal(b1-4)GlcNAc(b1-3)[Neu5Ac(a2-6)Gal(b1-4)GlcNAc(b1-6)]GalNAc
# Outline: as §1
# [7] = biological target: Neu5Ac(a2-6)Gal(b1-4)GlcNAc(b1-6)GalNAc
# Outline: as §1
# [8] = biological target: Neu5Ac(a2-6)Gal(b1-4)GlcNAc(b1-6)[Gal(b1-3)GlcNAc(b1-3)]Gal(b1-4)Glc
# Outline: as §1
# [9] = biological target: Neu5Ac(a2-6)Gal(b1-4)GlcNAc(b1-6)[Gal(b1-3)]GalNAc
# Outline: as §1
# [10] = biological target: Neu5Ac(a2-6)Gal(b1-4)GlcNAc6S
# Outline: as §1
# Neu5Ac(a2-6)GalNAc = biological target: Neu5Ac(a2-6)GalNAc
# Outline: as §1
# [11] = biological target: Neu5Ac(a2-6)GalNAc(b1-4)GlcNAc
# Outline: as §1
# [12] = biological target: Neu5Ac(a2-6)GalNAc(b1-4)GlcNAc6S
# Outline: as §1
# [13] = biological target: Neu5Ac(a2-6)GlcNAc(b1-4)GlcNAc
# Outline: as §1
# [14] = biological target: Neu5Ac(a2-6)GlcNAc(b1-4)GlcNAc(b1-4)GlcNAc
# Outline: as §1
# Neu5Ac(a2-8)Neu5Ac = biological target: Neu5Ac(a2-8)Neu5Ac
# Outline: as §1
# [15] = biological target: Neu5Ac(a2-8)Neu5Ac(a2-3)Gal(b1-3)GalNAc(b1-4)[Neu5Ac(a2-3)]Gal(b1-4)Glc
# Outline: as §1
# [16] = biological target: Neu5Ac(a2-8)Neu5Ac(a2-3)Gal(b1-3)GalNAc(b1-4)[Neu5Ac(a2-8)Neu5Ac(a2-3)]Gal(b1-4)Glc
# Outline: as §1
# [17] = biological target: Neu5Ac(a2-8)Neu5Ac(a2-3)Gal(b1-4)Glc
# Outline: as §1
# [18] = biological target: Neu5Ac(a2-8)Neu5Ac(a2-3)Gal(b1-4)GlcNAc
# Outline: as §1
# [19] = biological target: Neu5Ac(a2-8)Neu5Ac(a2-3)[Gal(b1-3)GalNAc(b1-4)]Gal(b1-4)Glc
# Outline: as §1
# [20] = biological target: Neu5Ac(a2-8)Neu5Ac(a2-3)[GalNAc(b1-4)]Gal(b1-4)Glc
# Outline: as §1
# [21] = biological target: Neu5Ac(a2-8)Neu5Ac(a2-8)Neu5Ac
# Outline: as §1
# [22] = biological target: Neu5Ac(a2-8)Neu5Ac(a2-8)Neu5Ac(a2-3)Gal(b1-4)Glc
# Outline: as §1
# [23] = biological target: Neu5Ac(a2-8)Neu5Ac(a2-8)Neu5Ac(a2-3)[Gal(b1-3)GalNAc(b1-4)]Gal(b1-4)Glc
# Outline: as §1
# [24] = biological target: Neu5Ac(a2-8)Neu5Ac(a2-8)Neu5Ac(a2-3)[GalNAc(b1-4)]Gal(b1-4)Glc
# Outline: as §1
# [25] = biological target: Neu5Ac(a2-8)Neu5Ac(a2-8)Neu5Ac(a2-8)Neu5Ac(a2-3)[GalNAc(b1-4)]Gal(b1-4)Glc
# Outline: as §1
# [26] = biological target: Neu5Ac(a2-8)Neu5Gc(a2-3)Gal(b1-4)GlcNAc
# Outline: as §1
# [27] = biological target: Neu5Ac(b2-6)Gal(b1-4)GlcNAc
# Outline: as §1
# Neu5Ac(b2-6)GalNAc = biological target: Neu5Ac(b2-6)GalNAc
# Outline: as §1
# [28] = biological target: Neu5Ac9Ac(a2-3)Gal(b1-3)GlcNAc
# Outline: as §1
# [29] = biological target: Neu5Ac9Ac(a2-3)Gal(b1-4)GlcNAc
# Outline: as §1
# [30] = biological target: Neu5Ac9Ac(a2-6)Gal(b1-4)GlcNAc
# Outline: as §1
# [31] = biological target: Neu5Gc(a2-3)Gal(b1-3)GlcNAc
# Outline: as §1
# [32] = biological target: Neu5Gc(a2-3)Gal(b1-3)[Fuc(a1-4)]GlcNAc
# Outline: as §1
# Neu5Gc(a2-3)Gal(b1-4)Glc = biological target: Neu5Gc(a2-3)Gal(b1-4)Glc
# Outline: as §1
# [33] = biological target: Neu5Gc(a2-3)Gal(b1-4)GlcNAc
# Outline: as §1
# [34] = biological target: Neu5Gc(a2-3)Gal(b1-4)GlcNAc(b1-3)Gal(b1-4)GlcNAc(b1-2)Man(a1-3)[Neu5Gc(a2-3)Gal(b1-4)GlcNAc(b1-3)Gal(b1-4)GlcNAc(b1-2)Man(a1-6)]Man(b1-4)GlcNAc(b1-4)GlcNAc
# Outline: as §1
# [35] = biological target: Neu5Gc(a2-3)Gal(b1-4)[Fuc(a1-3)]GlcNAc
# Outline: as §1
# [36] = biological target: Neu5Gc(a2-6)Gal(b1-4)GlcNAc
# Outline: as §1
# Neu5Gc(a2-6)GalNAc = biological target: Neu5Gc(a2-6)GalNAc
# Outline: as §1
# [37] = biological target: Neu5Gc(a2-8)Neu5Ac(a2-3)Gal(b1-4)GlcNAc
# Outline: as §1
# [38] = biological target: Neu5Gc(a2-8)Neu5Gc(a2-3)Gal(b1-4)GlcNAc
# Outline: as §1
# [39] = biological target: Neu5Gc(a2-8)Neu5Gc(a2-3)Gal(b1-4)GlcNAc(b1-3)Gal(b1-4)GlcNAc
# Outline: as §1
# [40] = biological target: Neu5Gc(a2-8)Neu5Gc(a2-6)Gal(b1-4)GlcNAc
# Outline: as §1
binder,measurement,setting,value
B1,glycan array binding signal (z-score),[1],0.234
same,glycan array binding signal (z-score),[2],-0.059
same,glycan array binding signal (z-score),[3],-0.388
same,glycan array binding signal (z-score),[4],-0.077
same,glycan array binding signal (z-score),[5],-0.574
same,glycan array binding signal (z-score),[6],-0.245
same,glycan array binding signal (z-score),[7],-1.25
same,glycan array binding signal (z-score),[8],1.86
same,glycan array binding signal (z-score),[9],3.56
same,glycan array binding signal (z-score),[10],-0.426
same,glycan array binding signal (z-score),Neu5Ac(a2-6)GalNAc,-0.452
same,glycan array binding signal (z-score),[11],-0.834
same,glycan array binding signal (z-score),[12],4.86
same,glycan array binding signal (z-score),[13],0.409
same,glycan array binding signal (z-score),[14],-0.21
same,glycan array binding signal (z-score),Neu5Ac(a2-8)Neu5Ac,-0.04
same,glycan array binding signal (z-score),[15],-0.089
same,glycan array binding signal (z-score),[16],-0.378
same,glycan array binding signal (z-score),[17],-0.445
same,glycan array binding signal (z-score),[18],-1.06
same,glycan array binding signal (z-score),[19],-0.631
same,glycan array binding signal (z-score),[20],-0.052
same,glycan array binding signal (z-score),[21],-0.203
same,glycan array binding signal (z-score),[22],-0.715
same,glycan array binding signal (z-score),[23],-0.048
same,glycan array binding signal (z-score),[24],0.537
same,glycan array binding signal (z-score),[25],0.044
same,glycan array binding signal (z-score),[26],-0.583
same,glycan array binding signal (z-score),[27],-0.294
same,glycan array binding signal (z-score),Neu5Ac(b2-6)GalNAc,-0.425
same,glycan array binding signal (z-score),[28],1.52
same,glycan array binding signal (z-score),[29],-0.494
same,glycan array binding signal (z-score),[30],-0.276
same,glycan array binding signal (z-score),[31],-1.55
same,glycan array binding signal (z-score),[32],-0.072
same,glycan array binding signal (z-score),Neu5Gc(a2-3)Gal(b1-4)Glc,-0.331
same,glycan array binding signal (z-score),[33],0.982
same,glycan array binding signal (z-score),[34],1.41
same,glycan array binding signal (z-score),[35],0.026
same,glycan array binding signal (z-score),[36],-0.523
same,glycan array binding signal (z-score),Neu5Gc(a2-6)GalNAc,0.773
same,glycan array binding signal (z-score),[37],-0.437
same,glycan array binding signal (z-score),[38],-0.432
same,glycan array binding signal (z-score),[39],-0.367
same,glycan array binding signal (z-score),[40],-0.447
